The source of these data is publication PMC4336329 (PLoS ONE, 2015).

SMILES strings stand for the structures. In all, about 310,000 compounds went through this assay and about 14,000 (4.5%) showed an effect of 50% or more. The effect is printed as a negative number. The list shows a part of the results.
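Further: peak tail current of the secondary pulse compared with the same well before compound.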

Chain of human ether-à-go-go-related gene (hERG) potassium channel (Q12809 whole entry, looked up): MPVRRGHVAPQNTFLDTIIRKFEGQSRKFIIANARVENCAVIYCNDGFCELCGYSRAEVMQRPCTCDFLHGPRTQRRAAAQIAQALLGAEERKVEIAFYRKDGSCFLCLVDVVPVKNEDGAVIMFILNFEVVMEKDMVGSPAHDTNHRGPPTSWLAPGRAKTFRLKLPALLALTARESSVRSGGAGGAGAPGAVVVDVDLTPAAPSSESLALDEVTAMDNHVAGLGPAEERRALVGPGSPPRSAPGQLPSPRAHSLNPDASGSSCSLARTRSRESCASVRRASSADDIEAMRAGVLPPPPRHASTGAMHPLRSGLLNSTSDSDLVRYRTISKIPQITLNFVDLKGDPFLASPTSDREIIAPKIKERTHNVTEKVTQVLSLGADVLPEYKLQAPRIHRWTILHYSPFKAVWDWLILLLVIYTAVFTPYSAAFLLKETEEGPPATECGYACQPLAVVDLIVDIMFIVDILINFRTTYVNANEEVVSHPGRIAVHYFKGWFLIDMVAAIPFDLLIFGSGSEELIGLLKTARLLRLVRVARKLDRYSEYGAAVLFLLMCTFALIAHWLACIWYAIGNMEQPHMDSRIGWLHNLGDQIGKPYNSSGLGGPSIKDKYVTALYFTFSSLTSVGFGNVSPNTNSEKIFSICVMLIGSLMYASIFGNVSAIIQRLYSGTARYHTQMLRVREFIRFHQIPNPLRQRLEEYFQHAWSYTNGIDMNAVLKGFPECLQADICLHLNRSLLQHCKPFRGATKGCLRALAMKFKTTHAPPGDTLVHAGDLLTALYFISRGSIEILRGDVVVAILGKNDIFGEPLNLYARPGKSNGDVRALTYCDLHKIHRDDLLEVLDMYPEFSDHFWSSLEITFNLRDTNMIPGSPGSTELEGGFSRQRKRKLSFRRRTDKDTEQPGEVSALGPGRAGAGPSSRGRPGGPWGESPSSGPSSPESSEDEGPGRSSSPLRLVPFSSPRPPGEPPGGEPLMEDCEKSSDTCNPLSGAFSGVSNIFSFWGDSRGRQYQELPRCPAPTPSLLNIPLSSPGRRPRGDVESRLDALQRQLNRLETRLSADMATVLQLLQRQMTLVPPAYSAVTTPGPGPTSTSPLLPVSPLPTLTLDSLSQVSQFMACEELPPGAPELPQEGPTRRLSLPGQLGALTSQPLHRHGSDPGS

This assay addresses human ether-à-go-go-related gene (hERG) potassium channel (human, UniProt Q12809). The assay can be described thus: primary screen, population patch clamp on CHO cells stably expressing hERG.
For `CN(C)CCCn1c(SCC(=O)N2c3ccccc3Sc3ccccc32)nc2ccccc2c1=O`, the “hERG current change (%, negative = inhibition) at 10uM” value is -39.5%.

Take `CN(C)CCCNC(=O)c1cc(C(=O)Cc2ccccc2)c[nH]1`: the “hERG current change (%, negative = inhibition) at 10uM” value is listed as -8.15%.

As for `Cc1cc(C)c(C#N)c(N2CCN(Cc3ccc4c(c3)OCO4)CC2)n1`, the “hERG current change (%, negative = inhibition) at 10uM” value was -45.1%.

As to `O=C(CN1CCCC1)N1CCN(c2ccccc2)CC1`, the “hERG current change (%, negative = inhibition) at 10uM” value is 2.58%.

`COc1ccc(CCNC(=O)CCSCc2ccccc2F)cc1OC`: the “hERG current change (%, negative = inhibition) at 10uM” value was 9.07%.

With `O=C(NC(=S)Nc1ccc2c(c1)OCCO2)c1ccccc1`, the “hERG current change (%, negative = inhibition) at 10uM” value was -0.633%.

`Cn1ncc2nnn(-c3ccccc3)c(=O)c21`: the “hERG current change (%, negative = inhibition) at 10uM” value is recorded as -1.07%.

Consider `COc1ccc(C(O)C(C)NC(C)C(O)c2ccc(OC)cc2)cc1` (stereo not drawn), for which the “hERG current change (%, negative = inhibition) at 10uM” value is recorded as 4.3%.

Regarding `O=C(COC(=O)/C=C/c1cccc(Br)c1)NC1CCCCCC1`, the “hERG current change (%, negative = inhibition) at 10uM” value is -4.26%.

For the compound `COc1ccccc1-n1cc(-c2ccc(Cl)cc2)[nH]c1=O`, the “hERG current change (%, negative = inhibition) at 10uM” value was -17%.

As for `CCOC(=O)C1CCCN(C(=S)NC2CCCC2)C1` (stereo not drawn), the “hERG current change (%, negative = inhibition) at 10uM” value is -22.4%.

With `O=C(CC(CC(=O)c1ccccc1)c1ccccc1)c1ccccc1`, the “hERG current change (%, negative = inhibition) at 10uM” value came to 0.181%.

As to `Cc1nn(Cc2ccccc2)c2c1C(c1ccc(Cl)cc1)C(C#N)=C(N)O2` (stereo not drawn), the “hERG current change (%, negative = inhibition) at 10uM” value was determined as 8.31%.

Turning to `COc1ccc(COc2cc(-c3cccc(OC)c3)nc3ccc(NC(=O)c4ccc(N(C)C)cc4)cc23)cc1`, the “hERG current change (%, negative = inhibition) at 10uM” value is reported as 9.2%.

In the case of `CCCC(C(=O)O)n1c(O)c(C=C2N=c3ccccc3=N2)sc1=S` (stereo not drawn), the “hERG current change (%, negative = inhibition) at 10uM” value was 6.16%.

On to `CC(=NCCCO)c1c(O)[nH]c(=O)[nH]c1=O`, for which the “hERG current change (%, negative = inhibition) at 10uM” value stood at 8.53%.

Regarding `CCCc1[nH]nc2c1C(c1ccc(O)c(OC)c1)C(C#N)=C(N)O2` (stereo not drawn), the “hERG current change (%, negative = inhibition) at 10uM” value was -31.9%.

On to `COc1cc(C(=O)C(=O)c2cc(OC)c(O)c(OC)c2)cc(OC)c1O`, for which the “hERG current change (%, negative = inhibition) at 10uM” value was determined as 5.6%.

For the compound `O=C(CN1C(=O)c2ccccc2C1=O)Nc1sc2c(c1C(=O)NCC1CCCO1)CCC2` (stereo not drawn), the “hERG current change (%, negative = inhibition) at 10uM” value is -2.69%.

As for `CCCCn1c(N)c(N(CCOC)C(=O)c2ccc3c(c2)OCCO3)c(=O)[nH]c1=O`, the “hERG current change (%, negative = inhibition) at 10uM” value is listed as -1.84%.

In the case of `Cc1sc2ncn3c(C)nnc3c2c1C`, the “hERG current change (%, negative = inhibition) at 10uM” value amounted to 8.78%.

With `O=C(CN1C(=O)NC(Cc2ccccc2)C1=O)Nc1ccc(F)c(F)c1F` (stereo not drawn), the “hERG current change (%, negative = inhibition) at 10uM” value is given as 1.56%.

As to `NC(=O)COc1ncn(-c2ccccc2)n1`, the “hERG current change (%, negative = inhibition) at 10uM” value worked out at 15.4%.

With `CC(=O)Nc1ccc(NC(=O)CSc2nnc(NC(=O)Cc3ccc(F)cc3)s2)cc1`, the “hERG current change (%, negative = inhibition) at 10uM” value is 26%.

For the compound `Fc1ccc(-c2n[nH]c(=S)n2CC2CCCO2)cc1` (stereo not drawn), the “hERG current change (%, negative = inhibition) at 10uM” value came to 16.7%.

Consider `COc1ccc(CN2CCNC(=O)C2CC(=O)NCc2ccc(C)s2)c(OC)c1` (stereo not drawn), for which the “hERG current change (%, negative = inhibition) at 10uM” value was -3.59%.

Regarding `COc1ccc(CC(=O)Nc2ccc3c(c2)CCC3)cc1`, the “hERG current change (%, negative = inhibition) at 10uM” value stood at 7.81%.

`COc1ccc(CCNC(=O)C(=O)NCC2OCCN2S(=O)(=O)c2ccc(Br)cc2)cc1` (stereo not drawn): the “hERG current change (%, negative = inhibition) at 10uM” value is recorded as -7.02%.

For `O=C(NC1CCS(=O)(=O)C1)C1CCCC1` (stereo not drawn), the “hERG current change (%, negative = inhibition) at 10uM” value was determined as 10.9%.

On to `CC1CCCC(C)N1C(=O)COc1ccc(C(=O)N/N=C/c2ccc(C(=O)O)cc2)cc1` (stereo not drawn), for which the “hERG current change (%, negative = inhibition) at 10uM” value came out at 21.9%.

For `O=C1c2cccc3cccc(c23)C(=O)N1CCN1CCN(CC(O)COc2ccc3ccccc3c2)CC1` (stereo not drawn), the “hERG current change (%, negative = inhibition) at 10uM” value is listed as -11.7%.

On to `CCn1nc(C)c([N+](=O)[O-])c1C(=O)NNC(=O)c1ccc(Cl)cc1`, for which the “hERG current change (%, negative = inhibition) at 10uM” value turned out to be 5.07%.

In the case of `CS(=O)(=O)N1CC2CCCN2c2ccc(C(F)(F)F)cc21` (stereo not drawn), the “hERG current change (%, negative = inhibition) at 10uM” value is -2.83%.

As to `O=C(NCc1ccc(Cl)cc1)C(=O)c1c[nH]c2ccccc12`, the “hERG current change (%, negative = inhibition) at 10uM” value was 11.1%.

In the case of `S=C(NCc1ccc(Cl)cc1)N1CCN(c2ccccn2)CC1`, the “hERG current change (%, negative = inhibition) at 10uM” value was -23.9%.

With `O=C(CNS(=O)(=O)c1c(F)cc(F)cc1Br)OCC(=O)N1CCCC1=O`, the “hERG current change (%, negative = inhibition) at 10uM” value is on record as -3.21%.

As to `CC1(C)CC(=O)C(CS(=O)(=O)c2ccccc2)=C(O)C1`, the “hERG current change (%, negative = inhibition) at 10uM” value is reported as 10.4%.

Regarding `CN(C)c1ccc(NC(=O)Nc2cccc3ccccc23)cc1`, the “hERG current change (%, negative = inhibition) at 10uM” value was found to be 36.5%.

On to `CC(C)c1ccccc1-n1cc[nH]c1=S`, for which the “hERG current change (%, negative = inhibition) at 10uM” value is 13.4%.

With `Cc1ccccc1NS(=O)(=O)c1cccc(C(=O)Nc2cccc(C(=O)O)c2)c1`, the “hERG current change (%, negative = inhibition) at 10uM” value turned out to be 22.4%.

Turning to `COc1cccc(OC)c1C(=O)Nc1nc2cc3c(cc2s1)OCO3`, the “hERG current change (%, negative = inhibition) at 10uM” value was determined as 11%.

On to `O=C(C1CCC1)N1CCc2cc(S(=O)(=O)N3CCN(c4ccccn4)CC3)ccc21`, for which the “hERG current change (%, negative = inhibition) at 10uM” value is reported as -8.07%.

For the compound `CC#CC(=O)N1CCC(CO)(CCc2ccccc2)CC1`, the “hERG current change (%, negative = inhibition) at 10uM” value stood at 1.33%.

Turning to `COc1ccc(NC(=O)CCCn2c(=S)[nH]c3ccccc3c2=O)cc1`, the “hERG current change (%, negative = inhibition) at 10uM” value came out at 16.5%.

Regarding `CCOc1cc(/C=N/NC(=O)COc2ccccc2C)ccc1OC(=O)c1cccs1`, the “hERG current change (%, negative = inhibition) at 10uM” value turned out to be 5.36%.
